Results on 15 compounds are retold here after PubChem BioAssay AID1745853 (National Center for Advancing Translational Sciences (NCATS), 2022).

This is one part of the list. The main result of the screen is listed elsewhere. These columns were measured beside it and carry no call.

Assay in all cases: Primary Screen for Target Class Profiling of Small Molecule Inhibitors of Methyltransferases
Assay [1] deals with Glycine N-methyltransferase (Homo sapiens) (UniProt Q14749). The following applies: purified enzyme, MTase-Glo SAH luminescence; measured here: GNMT inhibition; at 40 µM; stronger effect = lower value. The text has this:
(§1) PI: Matthew D. Hall Ph.D. and Quinlin M. Hanson Ph.D.
(§2) National Center for Advancing Translational Sciences (NCATS)
(§3) National Institute of Health (NIH), Rockville, MD
(§4) Target class profiling (TCP) is a chemical biology approach amenable to investigating understudied biological targets. TCP is achieved by developing a generalizable assay platform and applying it to screen a curated set of compound libraries against representative members of a target class. Small molecule methyltransferases (SMMTase) are a subclass of methyltransferase that act on metabolites to modulate signaling pathways, metabolize xenobiotics, or balance the available methyl pool. We screened four curated libraries totaling 27,574 unique compounds against the SMMTases nicotinamide N-methyltransferase (NNMT), phenylethanolamine N-methyltransferase (PNMT), histamine N-methyltransferase (HNMT), glycine N-methyltransferase (GNMT), catechol O-methyltransferase (COMT), and guanidinoacetate N-methyltransferase (GAMT). The data generated by this TCP can be leveraged for informed tool molecule development. For example, in the associated publication we identified a chemotype of HNMT-selective inhibitors. Additionally, we identified a putative SMMTase-selective inhibitor with potential as a tool molecule for studying broader methyltransferase biology.
(§5) High-through put screening assays were developed at the National Center for Advancing Translational Science (NCATS) for the enzymes NNMT, PNMT, HNMT, GNMT, COMT, and GAMT. Enzymatic activity was measured as a function of SAM cofactor conversion using the MTase Glo kit (Promega) for all enzymes. All assays were performed in 1536-well format with substrates and SAM concentrations at KM values. Enzyme concentration and assay timing were optimized for 10-20% SAM conversion. Initial screening of 27,574 compounds was done as single-point assays using the highest compound concentration (40 uM). […] These compounds were replated in 11-point dose response and assayed against NNMT, PNMT, HNMT, GNMT, COMT, GAMT, and a counter-assay. The IC50 and efficacy (maximal response) values were determined for each dose-response curve. These values are also accounted for in the area under the curve (AUC) values.
(§6) PROTOCOL TABLE (as described by Inglese J, Shamu CE and Guy RK. 2007)
(§7) SEQUENCE No. (e.g., 1, 2, 3, etc.); […] (e.g., Cells, Incubation, Reagent, etc.); VALUE; DESCRIPTION.
(§8) 1; Reagent; 2 uL; SMMTase Enzyme (2x) in reaction buffer, columns 1- 48.
(§9) 2; Reagent; 1 uL; SAM (4x) in reaction buffer, columns 1-48.
(§10) 3; Controls; 23 nL; DMSO in column 4; sinefungin in DMSO (0 uM - 40 uM) in 7-point 1:2 dilution series (n = 2) in column 2.
(§11) 4; Compounds; 23 nL; Columns 5-48.
(§12) 5; Reagent; 1 uL; Substrate (4x) in reaction buffer, columns 2-48.
(§13) 6; Time; 20-30 min; Incubation.
(§14) 7; Reagent; 1 uL; MTase-Glo reagent (5X), columns 1-48.
(§15) 8; Time; 30 min; Incubation.
(§16) 9; Reagent; 5 uL; MTase-Glo Detection reagent, columns 1-48.
(§17) 10; Time; 30 min; Incubation, luminescence evolution.
(§18) 11; Detection; Luminescence; ViewLux uHTS Microplate Imager (PerkinElmer).
(§19) NOTES (numbers refer to Sequence numbers above)
(§20) 1, 2, 5. White Medium Binding Greiner 1536-well plates (Cat #789175-F, Greiner Bio-One, Monroe, NC); Reaction buffer: 50 mM Tris, pH 8.0, 3 mM MgCl2, 1 mM EDTA, 50 mM NaCl, 1 mM DTT, and 0.1 mg/mL BSA. Evaporation was prevented by covering assay plates with metal lids containing holes to allow gas diffusion.
(§21) 1. Six SMMTase were profiled: HNMT, GNMT, PNMT, COMT, NNMT, GAMT
(§22) 5. The corresponding substrate was used for each enzyme: HNMT - 5.3 uM Histamine; GNMT - >500 uM Glycine; PNMT - 16.2 uM Norephinephrine; COMT - 13.7 uM Norephinephrine; NNMT - 3.8 uM Nicotinamide; GAMT - 2.5 uM Guanidinoacetate.6, 8, 10. Room temperature
(§23) 6. Final reaction conditions: 10 nM COMT, 5 uM SAM, 15 uM norepinephrine, 50 mM Tris, pH 8.0, 3 mM MgCl2, 1 mM EDTA, 50 mM NaCl, 1 mM DTT, and 0.1 mg/mL BSA; refer to tables 2 and S1 for specific timing.
8. […]

The target of assay [2] is Guanidinoacetate N-methyltransferase (Homo sapiens) (UniProt Q14353). The following applies: purified enzyme, MTase-Glo SAH luminescence; measured here: GAMT inhibition; at 40 µM; stronger effect = lower value.
Text: as §1, §2, §3, §4, §5, §6, §7, §8, §9, §10, §11, §12, §13, §14, §15, §16, §17, §18, §19, §20, §21, §22, §23
8. […]

The target of assay [3] is Histamine N-methyltransferase (Homo sapiens) (UniProt P50135). The following applies: purified enzyme, MTase-Glo SAH luminescence; measured here: HNMT inhibition; at 40 µM; stronger effect = lower value.
Text: as §1, §2, §3, §4, §5, §6, §7, §8, §9, §10, §11, §12, §13, §14, §15, §16, §17, §18, §19, §20, §21, §22, §23
8. […]

The target in assay [4] is Nicotinamide N-methyltransferase (Homo sapiens) (UniProt P40261). To be noted: purified enzyme, MTase-Glo SAH luminescence; measured here: NNMT inhibition; at 40 µM; stronger effect = lower value.
Text: as §1, §2, §3, §4, §5, §6, §7, §8, §9, §10, §11, §12, §13, §14, §15, §16, §17, §18, §19, §20, §21, §22, §23
8. […]

The target of assay [5] is Phenylethanolamine N-methyltransferase (Homo sapiens) (UniProt P11086). The following applies: purified enzyme, MTase-Glo SAH luminescence; measured here: PNMT inhibition; at 40 µM; stronger effect = lower value.
Text: as §1, §2, §3, §4, §5, §6, §7, §8, §9, §10, §11, §12, §13, §14, §15, §16, §17, §18, §19, §20, §21, §22, §23
8. […]
On the % scale 0 is the no-effect control and ±100 the full control effect.

For `CCOc1nc2cccc(C(=O)O)c2n1Cc1ccc(-c2ccccc2-c2noc(=O)[nH]2)cc1`, the activity change, negative = inhibition in assay [1] is -7.81%; in assay [2] it was -8.9%; in assay [3] it was 5.34%; in assay [4] it was -19.6%; in assay [5] it was -2.84%.
For `O=C(NCc1ccccc1)c1ccc2c(=O)nc3c(-c4ccc(Cl)cc4)n[nH]n3c2c1`, the activity change, negative = inhibition is -9.28% in assay [1]; -1.19% in assay [2]; -0.94% in assay [3]; -15.4% in assay [4]; -4.78% in assay [5].
Taken in the same sequence, the figures for `CCOC(=O)c1cc2n(n1)CC(C)(C(=O)NC1CCCC1)N(c1cc(C)cc(C)c1)C2=O` (stereo not given) were 2.4%, 0.487%, 3.6%, 5.72% and 2.8%.
The corresponding values for `CCOC(=O)c1cc2n(n1)CC(C)(C(=O)NC1CCCCC1)N(c1cccc(Cl)c1C)C2=O` (stereo not given) are -0.814%, 4.72%, -4.6%, 3.88% and 1.24%.
Turning to `O=C(CC[C@@H]1CNC(=O)[C@@H]2C[C@H](NCc3ccccn3)CN12)NCc1ccccc1`, the activity change, negative = inhibition in assay [1] is -12%; in assay [2] it was -8.52%; in assay [3], -4.21%; in assay [4], -14.3%; in assay [5] it was -13.3%.
Turning to `COc1cccc2c1OCCCN(Cc1cn(-c3ccccc3)nn1)C2`, the activity change, negative = inhibition was -1.98% in assay [1]; -0.56% in assay [2]; -2.74% in assay [3]; -0.237% in assay [4]; -0.629% in assay [5].
Taken in the same sequence, the figures for `COc1ccc(CN2CCCC3(Cc4ccccc4CNC3=O)C2)c(OC)n1` (stereo not given) were -4.02%, -4.31%, -12.8%, -8.68% and -5.05%.
`CCC(CC)NC(=O)[C@@H]1COCC(=O)N1Cc1ccc(OC)cc1OC`: the activity change, negative = inhibition in assay [1] was -1.35%; in assay [2], 0.692%; in assay [3] it was 1.05%; in assay [4], -2.2%; in assay [5], -0.224%.
Taken in the same sequence, the figures for `COCCOC(=O)C1=C(C)NC(C)=C(C(=O)OC/C=C/c2ccccc2)C1c1cccc([N+](=O)[O-])c1` (stereo not given) were -3.1%, 10.5%, 8.83%, -10.4% and -1.38%.
The corresponding values for `O=C(NCCCc1ccccc1)C1CCC(CNS(=O)(=O)c2cccc3nsnc23)CC1` (stereo not given) are -7.5%, -8.71%, -4.15%, -28.4% and -12.6%.
The corresponding values for `Cc1cccc(NC(=O)CSc2nnc3[nH]c(=O)c(C(C)(C)C)nn23)c1` are 9.68%, 1.85%, 6.08%, 0.657% and -0.48%.
As for `C=C(C)C1CCC(C)C12CC(O)C1(C)OC1C2OC(=O)C(N)CCC(=O)O` (stereo not given), the activity change, negative = inhibition in assay [1] is 1.74%; in assay [2] it was -0.081%; in assay [3], 11.3%; in assay [4] it was -12.1%; in assay [5], -8.62%.
Taken in the same sequence, the figures for `O=C(Cn1nc2nc(Nc3ccc(F)cc3)ccn2c1=O)Nc1cc(F)cc(F)c1` were 0.653%, 0%, 5.04%, -5.55% and 3.16%.
Taken in the same sequence, the figures for `COc1ccccc1CNC(=O)C1(C)Cn2nc(-c3ccccc3)cc2C(=O)N1c1cccc(Cl)c1C` (stereo not given) were 7.4%, 0%, 6.54%, 9.38% and 2.99%.
For the compound `COCCNC(=O)N1CCCC(CNC(=O)c2cccc3ccccc23)C1` (stereo not given), the activity change, negative = inhibition in assay [1] is -5.7%; in assay [2], -5.22%; in assay [3], -0.748%; in assay [4], -9.53%; in assay [5], 2.74%.
